Reference: PubChem BioAssay AID504832 (National Center for Advancing Translational Sciences (NCATS), 2011)
In all, about 310,000 compounds went through this assay and about 18,000 (5.8%) were called active. The shares of active, inactive and inconclusive entries below differ from those in the screen. Calls follow the shape of the dose curve; as a rule, active = well fitted inhibition curve with a large enough effect; inconclusive = small, poorly fitted or top-dose-only effect, or another doubt; inactive = no such curve, though single readings can be large or run the other way. No potency is given beside an inconclusive call; the fits are too rough.

Assay: Primary qHTS for delayed death inhibitors of the malarial parasite plastid, 48 hour incubation
Conditions: P. falciparum luciferase growth in erythrocytes; series mostly up to 28.7 µM
Outline: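 Compounds are pin-transferred into medium, infected erythrocytes (2% hematocrit, 0.1% parasitemia final) are added, and plates sit one parasite generation at 37 C in 5% CO2. Detection reagent is then added and luminescence measured.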
% is scaled to controls: 0 for no effect and ±100 for the full control effect; potency is read from the fitted curve at half-maximal effect; tags tell the direction and shape of the fitted curve.

Compound	Potency	activity change, negative = inhibition
Cc1nc2ccccc2c(=O)n1/N=C/c1ccccc1O	inactive	–
CCOc1ccc(S(=O)(=O)N2CCN(CN3C(=O)CC4(CCCC4)C3=O)CC2)cc1	inactive	–
Cn1nc(C(F)(F)F)c(-c2ccccc2)c1NC(=O)c1cccnc1	inconclusive [inhibitor, single point]	–
CCc1ccc(NC(=O)CSc2nc(NS(=O)(=O)c3ccccc3)cc(=O)[nH]2)cc1	inconclusive [inhibitor, partial curve, poor fit]	–
CC(C)NC(=O)CSc1nc(Cc2ccccc2)nc2ccccc12	inconclusive [inhibitor, partial curve, poor fit]	–
COc1cccc(NC(=S)N2c3ccccc3CC2C)c1 (stereo unspecified)	inactive	–
O=C1NC2(CCCCC2)N=C1c1ccc(F)cc1	inconclusive [inhibitor, single point]	–
CC(=O)n1cc(N(C(=O)CCl)c2ccc([N+](=O)[O-])cc2)c2ccccc21	active: 3.7 µM	–
COCCN(C(=O)/C=C/c1ccccc1)c1nnc(-c2cccnc2)s1	inconclusive [inhibitor, full curve, poor fit]	–
COC(=O)c1ccc(C(=O)OC)c(NC(=S)N2CCCC2)c1	–	inactive: 18.1% [at 0.00184 µM]
Cc1cccnc1NC(=O)CCNC(=O)c1ccc(Br)cc1	inactive	–
COc1ccc(CN2CCNC(=O)C2CC(=O)NCc2ccc(C)s2)c(OC)c1 (stereo unspecified)	inactive	–
COc1ccc(C2(CCN)CC(C)N(C)CC2C)cc1 (stereo unspecified)	inactive	–
COc1ccc(-c2n[nH]c(C)c2-c2ccc(Cl)cc2)c(O)c1OC	inconclusive [inhibitor, single point]	–
Cc1cc(Cl)cc(Cl)c1OCCCCN(C)C	inconclusive [inhibitor, single point]	–
CCn1ccnc1CNC(=O)CC1C(=O)NCCN1CCCc1ccccc1 (stereo unspecified)	inconclusive [inhibitor, partial curve, poor fit]	–
COC(=O)C1=C(c2ccc(C(C)=O)cc2)C[C@@H]2CC[C@H]1N2C(=O)NCC1CC1	inactive	–
C/C(=N\NC(=S)NCc1ccccc1)c1ccc(Cl)s1	inconclusive [inhibitor, partial curve, poor fit]	–
Cc1cccc(C)c1NC(=O)CNC(=O)c1ccc2ccccc2n1	inconclusive [inhibitor, single point]	–
CCCCn1c(=O)[nH]c(=O)c2c1nc(-c1ccncc1)n2CCOC	inconclusive [inhibitor, partial curve, poor fit]	–
COc1ccc(N(CC(=O)N2CCCCC2)S(=O)(=O)c2ccccc2)c(OC)c1	inconclusive [inhibitor, single point]	–
O=C(COC(=O)c1ccc(O)cc1)c1ccc2c(c1)OCCO2	inconclusive [inhibitor, partial curve, poor fit]	–

Compound	Potency	activity change, negative = inhibition
COc1ccc(CNC(=O)CNC(c2ccccc2)c2ccccc2)cc1OC	inconclusive [inhibitor, single point]	–
CCC(C(=O)NC1CCCC1)N(C(=O)Cn1nnc(-c2ccc(C)o2)n1)c1ccc(OC)cc1 (stereo unspecified)	inconclusive [inhibitor, single point]	–
O=C(NCc1ccco1)c1ccc(CS(=O)(=O)c2cccc(C(F)(F)F)c2)o1	inconclusive [inhibitor, single point]	–
CCOc1cc(/C=C2/NC(=S)NC2=O)ccc1OCc1ccc([N+](=O)[O-])cc1	inconclusive [inhibitor, partial curve]	–
COc1cc(NC(=O)c2ccccc2)c(OC)cc1NC(=O)CN1CCOCC1	inconclusive [inhibitor, partial curve]	–
CCc1noc(C)c1C(=O)N1CC(C)SC1=Nc1ccc(Cl)cc1 (stereo unspecified)	active: 10.4 µM	–
COCCNC(=O)CSc1nc2cc3c(cc2c(=O)n1Cc1ccco1)OCO3	inactive	–
CCCCn1c(N)c(N(CCOC)C(=O)c2ccc(N(C)S(=O)(=O)c3ccc(C)cc3)cc2)c(=O)[nH]c1=O	inconclusive [inhibitor, single point]	–
CCCCN(Cc1cccs1)S(=O)(=O)c1ccc(-c2ccc(=O)[nH]n2)s1	inconclusive [inhibitor, partial curve, poor fit]	–
COc1ccc(C(=O)/C=C/c2cc(OC)c(O)c(OC)c2)c(F)c1	inactive	–
O=S(=O)(c1ccc(NC(=S)NCc2ccc(F)cc2)cc1)N1CCOCC1	inconclusive [inhibitor, partial curve, poor fit]	–
C#CCOCCOCCOCCNc1nc(N2CCN(C(=O)CCCCCCCCCCNC(=O)Cn3cc(C[C@@H](C)O)nn3)CC2)nc(N2CCN(C(=O)CCCCCCCCCCNC(=O)[C@H](CCCN=C(N)N)n3cc(C[C@@H](C)CC)nn3)CC2)n1	active: 1.31 µM	–
Cc1ccc(/C(C#N)=C\c2ccc(N3CCOCC3)o2)cc1	inconclusive [inhibitor, single point]	–
CCCCN(C(=O)Cc1ccc(S(=O)(=O)N2CCOCC2)s1)c1ccccc1	inconclusive [inhibitor, single point]	–
N/C(CCS(=O)(=O)c1ccc(Cl)cc1)=N\OC(=O)c1ccccc1C(F)(F)F	active: 3.7 µM	–
CCOP(=O)(OCC)c1nc(-c2ccc(Cl)cc2Cl)oc1N1CCOCC1	inconclusive [inhibitor, partial curve, poor fit]	–
CCOC(=O)C1=C(C)NC2=C(C(=O)c3ccccc32)C1c1ccc([N+](=O)[O-])o1 (stereo unspecified)	active: 13.1 µM	–
COc1ccc(S(=O)(=O)N2CCOCC2)cc1NC(=O)CSc1nnc2ccccn12	inactive	–
Cc1ccccc1C(=O)c1cccn1CC(=O)NCCN1CCN(c2cccc(C)c2C)CC1	inconclusive [inhibitor, single point]	–
Cc1ccc(Cl)cc1N(CC(=O)N1CCOCC1)S(C)(=O)=O	inactive	–
CCOc1ccccc1NC(=O)CN1C(=O)C(C)SC(C)C1=O (stereo unspecified)	inconclusive [inhibitor, full curve, poor fit]	–
CCOC(=O)C1(CCCc2ccccc2)CCN(C(=O)C2CCCN(C(N)=O)C2)CC1 (stereo unspecified)	inconclusive [inhibitor, single point]	–

Compound	Potency	activity change, negative = inhibition
COc1cc(CNC2CCCC2)cc(Cl)c1OCc1ccccc1Cl	inconclusive [inhibitor, partial curve, poor fit]	–
CN(C)S(=O)(=O)c1cccc(NC(=O)COC(=O)C2(c3ccccc3F)CCCC2)c1	inconclusive [inhibitor, single point]	–
CC(C)(C)NC(=O)C(c1ccc(F)cc1)N(Cc1ccco1)C(=O)CCC(=O)Nc1ccccn1 (stereo unspecified)	inconclusive [inhibitor, partial curve]	–
COc1ccc(OC)c(CCNC(=O)CCn2ccc3cc(S(=O)(=O)N4CCCC4)ccc32)c1	inconclusive [inhibitor, partial curve]	–
CN(C)C(=O)c1ccc(NC(=O)COC(=O)C2=COCCO2)cc1	inactive	–
CCN1c2ccccc2N(C)C1(C)c1ccccc1 (stereo unspecified)	active: 2.62 µM	–
CCOC(=O)N1CCC(N2C(=O)c3ccccc3C2Nc2ccc3c(C)cc(=O)oc3c2)CC1 (stereo unspecified)	inconclusive [inhibitor, single point]	–
C=CCNC(=O)CN1C(=O)C2C3c4ccccc4C(c4ccccc43)C2C1=O (stereo unspecified)	inactive	–
CCCOc1ccc(C(=O)NNC(=O)CCNC(=O)c2ccco2)cc1OC	inactive	–
O=C(CCN1C(=O)/C(=C/c2ccccc2F)SC1=S)NCCCn1ccnc1	inconclusive [inhibitor, single point]	–
O=C1[C@H]2[C@@H](/C=C/c3ccccc3)N3C(=O)CN(CCO)C(=O)[C@@]3(Cc3ccccc3)[C@H]2C(=O)N1c1ccccc1	inactive	–
O=C(CSc1nnc(Nc2ccccc2)s1)NCc1ccco1	inactive	–
COc1ccc(CNC(=S)Nc2ccccc2-c2ccccc2)cc1	inconclusive [inhibitor, partial curve, poor fit]	–
COCCn1c(SCC(=O)NCc2ccc3c(c2)OCO3)nc2ccccc2c1=O	inactive	–
COc1cc(C)c(CN2CCC(Cc3ccccc3)CC2)cc1C	inconclusive [inhibitor, single point]	–
CCOC(=O)C1(Cc2ccccc2)CCN(Cc2cccn2-c2cccnc2)CC1	inconclusive [inhibitor, partial curve]	–
[O-][n+]1c2ccccc2c2n1CCN=C2c1ccc(Cl)cc1	inconclusive [inhibitor, single point]	–
CCc1nc(C)cn1S(=O)(=O)c1cc([N+](=O)[O-])ccc1Cl	inconclusive [inhibitor, single point]	–
Cc1cc(C)n(CC(O)Cn2c3ccc(Cl)cc3c3cc(Cl)ccc32)c(=O)n1 (stereo unspecified)	inconclusive [inhibitor, single point]	–
CCOC(=O)Cc1c(C)nc(Cc2ccc(OC(C)C)cc2)[nH]c1=O	–	inactive: 13% [at 5.75 µM]
COc1ccccc1CCc1nnc(CCC(=O)N(C)Cc2cccc3ncccc23)o1	inconclusive [inhibitor, partial curve, poor fit]	–
O=C1CCCCC(=O)c2ccccc2N1	inconclusive [inhibitor, partial curve, poor fit]	–
